{"source": "PubChem BioAssay AID624202", "about": "(National Center for Advancing Translational Sciences (NCATS), 2012)", "note": "The whole screen tested about 380,000 compounds, of which about 4,000 (1.1%) were called active. Inconclusive means that the source gave no clear call. Such entries were picked first, then a sample of the others. Calls follow the shape of the dose curve; as a rule, active = well fitted activation curve with a large enough effect; inconclusive = small, poorly fitted or top-dose-only effect; inactive = no such curve, though single readings can be large or run the other way. A potency beside an inconclusive call is a rough fit, not a confirmed value. Potency is read from the fitted curve at half-maximal effect; tags tell the direction and shape of the fitted curve."}
{"test": "qHTS Assay to Identify Small Molecule Activators of BRCA1 Expression; also: nearly all actives have a fitted effect of over 80% in size", "settings": "MCF7-BRCA1-FFLuc reporter, luminescence, 48 h; activation: at 46.1 µM (top of the series), scaled: vehicle 0%, 10 µM genistein 100% unless noted", "in_short": "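MCF7-BRCA1-FFLuc, 2000 cells/well; 2 h attach, 37 °C/5% CO2; compound 48 h; luciferase substrate 15 min; luminescence end-point. Norm. to genistein 10 microM max activation and DMSO; concentration-response curves fitted.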"}
{"molecule": "O=C(CCCn1c(=S)[nH]c2ccccc2c1=O)NC1CCCC1", "activation": "inactive: 9.36% [at 1.84 µM, scaled: vehicle 0%, 10 µM genistein 100%]"}
{"molecule": "CC(=O)c1cccc(NC(=O)c2cc(C(C)C)on2)c1", "Potency": "active: 3.16 µM"}
{"molecule": "CCN(CC1CCCO1)C(=O)c1cc(COc2ccccc2SC)on1", "note": "(centres undefined)", "Potency": "inconclusive: 25.1 µM [activator, single point]"}
{"molecule": "O=C(Nc1nc2ccc(Cl)cc2s1)C1CCCO1", "note": "(centres undefined)", "Potency": "inconclusive: 1.26 µM [activator, partial curve, poor fit]"}
{"molecule": "CN1CCN(/N=C/c2ccc(OCc3ccccc3)cc2)CC1", "Potency": "active: 7.94 µM"}
{"molecule": "Cc1cc(C)c2c(n1)sc1c(=O)n(CC(=O)c3ccccc3)cnc12", "Potency": "inconclusive: 1.58 µM [activator, partial curve, poor fit]"}
{"molecule": "O=C(CNC(=O)C1CCCCC1)OCC(=O)c1ccc(-c2ccccc2)cc1", "activation": "inactive: 8.13%"}
{"molecule": "CCCCNc1ccc(/C=C2\\C=Cc3ccccc32)cc1", "Potency": "active: 6.31 µM"}
{"molecule": "c1ccc(Cc2cc(-c3ccccc3)on2)cc1", "Potency": "inconclusive: 14.1 µM [activator, partial curve, poor fit]"}
{"molecule": "CC(=O)c1cc2c(=O)c3cc(C)ccc3oc2nc1C", "Potency": "active: 11.2 µM"}
{"molecule": "COc1ccc(OC)c(CC(=O)Nc2cc(S(=O)(=O)N3CCCCC3)ccc2C)c1", "activation": "inactive: -36%"}
{"molecule": "COc1ccc(-c2cc(C(=O)N3CCCCCC3)no2)cc1", "Potency": "inconclusive: 0.631 µM [activator, full curve, poor fit]"}
{"molecule": "Cc1ccc2c(c1)sc1nc(=O)n(-c3cccc(Cl)c3)c(=O)n12", "Potency": "active: 1.41 µM"}
{"molecule": "COc1ccc(-c2noc(C3CCCN(C(=O)Nc4ccccc4F)C3)n2)cc1", "note": "(centres undefined)", "Potency": "inconclusive: 2.51 µM [activator, partial curve, poor fit]"}
{"molecule": "Cn1ccc(NC(=O)Nc2ccc(Cl)cc2)n1", "Potency": "active: 7.08 µM"}
{"molecule": "N#Cc1cnc2sc3ccccc3n2c1=N", "Potency": "inconclusive: 11.2 µM [activator, partial curve, poor fit]"}
{"molecule": "COc1ccc(CN(C)C(=O)c2[nH]c(C)c(C(C)=O)c2C)cc1F", "activation": "inactive: -27.9%"}
{"molecule": "COC(=O)C1=C(C(=O)OC)SC2(S1)C(C(=O)OC)=C(C(=O)OC)SC1=C2c2cc(C)ccc2NC1(C)C", "activation": "inactive: -57.2%"}
{"molecule": "CN(C)S(=O)(=O)c1ccc(NC(=O)c2ccccn2)cc1", "Potency": "inconclusive: 3.98 µM [activator, full curve, poor fit]"}
{"molecule": "COc1cccc(C(=O)Nc2nnc(-c3ccccc3)s2)c1OC", "Potency": "active: 1.78 µM"}
{"molecule": "CCN1CCN(CC(=O)Nc2cc(S(=O)(=O)N(CC)c3ccccc3)ccc2Cl)CC1", "activation": "inactive: -37.6%"}
{"molecule": "Cc1ccc2nc3n(c(=O)c2c1)CCCCC3", "Potency": "inconclusive: 31.6 µM [activator, single point]"}
{"molecule": "N/C(=N\\OC(=O)c1ccc(Br)cc1)c1cccc([N+](=O)[O-])c1", "Potency": "inconclusive: 15.8 µM [activator, partial curve, poor fit]"}
{"molecule": "COc1cc(NC(=O)c2csc3c2CCCC3)ncn1", "Potency": "inconclusive: 2.51 µM [activator, partial curve, poor fit]"}
{"molecule": "COc1ccccc1N1CCN(/N=C/c2ccc(O)cc2O)CC1", "Potency": "inconclusive: 8.91 µM [activator, partial curve, poor fit]"}
{"molecule": "CN(C(=O)Cn1nc(C(=O)O)c2ccccc2c1=O)C1CCCCC1", "activation": "inactive: -1.22%"}
{"molecule": "CC1=C(C(=O)Nc2cccc(C(=O)N3CCN(c4cccc(C(F)(F)F)c4)CC3)c2)SCCO1", "activation": "inactive: -34.9%"}
{"molecule": "CC(=NNc1ccc([N+](=O)[O-])cn1)c1ccc(N)cc1", "Potency": "inconclusive: 11.2 µM [activator, partial curve, poor fit]"}
{"molecule": "COc1ccc(C)cc1NC(=O)C1CCN(S(=O)(=O)c2cccc3cccnc23)CC1", "activation": "inactive: 6.31%"}
{"molecule": "CN(C)c1ccc(C=Nc2cncc3ccccc23)cc1", "Potency": "inconclusive: 1.26 µM [activator, full curve, poor fit]"}
{"molecule": "COc1cc(C2C3=C(COC3=O)Oc3cc4c(cc32)OCO4)cc(OC)c1OC", "note": "(centres undefined)", "activation": "inconclusive: -94.9% [activator]"}
{"molecule": "c1ccc(-c2noc(-c3ccncc3)n2)nc1", "Potency": "inconclusive: 1.26 µM [activator, partial curve, poor fit]"}
{"molecule": "CCC(C)c1ccc(NC(=O)CSc2nncn2N)cc1", "note": "(centres undefined)", "Potency": "inconclusive: 15.8 µM [activator, partial curve, poor fit]"}
{"molecule": "COc1cccc(C(=O)NCCS(=O)(=O)NCCc2ccccc2)c1", "Potency": "inconclusive: 11.2 µM [activator, partial curve, poor fit]"}
{"molecule": "CCN(CC)CCNc1nc(-n2nc(C)cc2C)nc2sc3c(c12)CC(C)(C)OC3", "activation": "inactive: -3.21%"}
{"molecule": "Cc1ccc(NC(=O)Cc2nc(CSc3nnc(-c4ccc5c(c4)OCO5)o3)cs2)cc1", "Potency": "inconclusive: 11.2 µM [activator, partial curve, poor fit]"}
{"molecule": "COc1ccc([C@@H](C)NC(=O)c2ccc3oc(C(C)C)nc3c2)cc1", "Potency": "inconclusive: 15.8 µM [activator, single point]"}
{"molecule": "O=[N+]([O-])c1ccc(O)c(C=Nc2ccc3c(c2)OCCO3)c1", "Potency": "active: 11.2 µM"}
{"molecule": "CC(=O)c1ccc(Nc2cc(C)nc3c(C)cccc23)cc1", "Potency": "inconclusive: 31.6 µM [activator, single point]"}
{"molecule": "O=C(NC1CCCC1)c1cc(-c2ccc(Cl)cc2Cl)on1", "Potency": "inconclusive: 1.78 µM [activator, full curve, poor fit]"}
{"molecule": "COc1ccc(C(=O)NC2=NCCS2)cc1", "Potency": "active: 3.16 µM"}
{"molecule": "COc1cccc(NC(=O)CNC(=O)c2ccccc2)c1", "Potency": "inconclusive: 15.8 µM [activator, single point]"}
{"molecule": "CCCCOc1ccc(-c2cn3ccccc3n2)cc1[N+](=O)[O-]", "Potency": "inconclusive: 2.82 µM [activator, full curve, poor fit]"}
{"molecule": "Clc1ccc(OCc2nc(-c3ccccn3)no2)c(Br)c1", "activation": "inactive: 64.4%"}
{"molecule": "COC(=O)c1ccc(N=NNc2ccccc2)cc1", "Potency": "inconclusive: 1 µM [activator, full curve, poor fit]"}
{"molecule": "NC(=O)c1ccccc1N/C=C/C(=O)c1ccco1", "Potency": "inconclusive: 3.55 µM [activator, full curve, poor fit]"}
{"molecule": "COc1ccccc1OC(C)C(=O)Nc1cccc(-c2nc3ccccc3s2)c1", "note": "(centres undefined)", "activation": "inactive: 2.42%"}
{"molecule": "COc1ccc(NC(=O)c2scc(S(=O)(=O)C(C)C)c2N)cc1", "Potency": "inconclusive: 2 µM [activator, full curve, poor fit]"}
{"molecule": "c1ccc(COc2ccc(OCCCn3cncn3)cc2)cc1", "Potency": "inconclusive: 0.631 µM [activator, full curve, poor fit]"}
{"molecule": "COC(=O)C1[C@H]2C(=O)N(Cc3cccs3)C[C@]23C=C[C@H]1O3", "note": "(some centres undefined)", "activation": "inactive: 9.7%"}
{"molecule": "Cc1cc(C(=O)Nc2ccc([N+](=O)[O-])cn2)cs1", "Potency": "active: 3.16 µM"}
{"molecule": "O=C(Nc1ccc(Cl)c(Cl)c1)N1CCCCCC1", "Potency": "inconclusive: 12.6 µM [activator, partial curve, poor fit]"}
{"molecule": "O=C(N/N=C/c1ccccn1)NC12CC3CC(CC(C3)C1)C2", "Potency": "active: 3.98 µM"}
{"molecule": "CC(C)Cn1cnc2c(SCc3ccccc3F)nc(N)nc21", "Potency": "active: 5.62 µM"}
{"molecule": "O=C(/C=C/c1cccs1)NCc1cccs1", "Potency": "inconclusive: 14.1 µM [activator, partial curve, poor fit]"}
{"molecule": "COc1ccc(Nc2ccc3c(c2)=NC2(CCCCC2)[N+]=3[O-])cc1", "activation": "inactive: -82.7%"}
{"molecule": "CCOC(=O)C1(Cc2ccccc2)CCCN(C(=O)c2cnn(CC)c2)C1", "note": "(centres undefined)", "Potency": "inconclusive: 15.8 µM [activator, partial curve, poor fit]"}
{"molecule": "CC1=NN(c2ccccc2)C(=O)/C1=C\\C=C1/N(C)c2ccccc2C1(C)C", "activation": "inactive: -15.7%"}
{"molecule": "CCOC(=O)c1sc(NC(=O)C(OC(C)=O)c2ccccc2)nc1C", "note": "(centres undefined)", "Potency": "inconclusive: 7.94 µM [activator, partial curve, poor fit]"}
{"molecule": "COc1ccc(C(=O)O/N=C(\\N)c2ccc(OC)c(OC)c2)cc1", "Potency": "active: 12.6 µM"}
{"molecule": "O=C(Nc1ccc2c(c1)OCO2)N1CCN(c2ccccc2Cl)CC1", "Potency": "active: 10 µM"}
{"molecule": "Cc1ccc(N/C(=C\\C(=O)c2ccccc2)C(=O)O)cc1", "Potency": "inconclusive: 15.8 µM [activator, partial curve, poor fit]"}
{"molecule": "CN(C)S(=O)(=O)c1cccc(NC(=O)COC(=O)c2cc3ccccc3oc2=O)c1", "Potency": "active: 10 µM"}
{"molecule": "COc1ccccc1-c1nn2c(-c3ccco3)nnc2s1", "Potency": "active: 7.94 µM"}
{"molecule": "Oc1ccc(/C=C/c2cnccn2)cc1", "Potency": "active: 12.6 µM"}
{"molecule": "CC1CCc2c(sc(NC(=O)Cn3nc(C(F)(F)F)c4c3CCCCC4)c2C#N)C1", "note": "(centres undefined)", "activation": "inactive: -2.89%"}
{"molecule": "CC(C)OC(=O)c1ccc(NC(=O)c2ccco2)cc1", "Potency": "inconclusive: 2.24 µM [activator, full curve, poor fit]"}
{"molecule": "Cc1ccc(S(=O)(=O)n2nc(C)c(S(=O)(=O)N3CCCCCC3)c2C)cc1", "activation": "inactive: 1.48%"}
{"molecule": "CCN(C(=O)Cn1ccc(C(F)(F)F)n1)c1c(N)n(Cc2ccccc2)c(=O)[nH]c1=O", "activation": "inactive: -14.8%"}
{"molecule": "Cc1ccc(NC(=O)c2ccc3nsnc3c2)c(C)c1", "Potency": "inconclusive: 11.2 µM [activator, partial curve, poor fit]"}
{"molecule": "CC1CCCCN1C(=O)C1CC(c2ccc(F)cc2)=NO1", "note": "(centres undefined)", "Potency": "inconclusive: 14.1 µM [activator, partial curve, poor fit]"}
{"molecule": "CCc1nc2c(OCc3ccccc3C)cccn2c1N(C)C(=O)CC(C)C", "activation": "inactive: -21.5%"}
{"molecule": "CCc1ccc(NC(=O)CSc2ccnc(=O)[nH]2)cc1", "activation": "inactive: 40.3%"}
{"molecule": "CCCSc1nnc(NC(=O)Nc2ccccc2OC)s1", "Potency": "inconclusive: 35.5 µM [activator, single point]"}
